As a reminder, the IC50 is the concentration that inhibits the measured activity by half.

Read-outs that look alike come from different tables or passages of the source.

For assay [1], the target named is T1, BRD4 BD1 (Homo sapiens (Human), UniProt O60885). Nature of the assay: biochemical.
The subject of a further assay is MYC. Nature of the assay: cells. Particulars: Homo sapiens, MV4-11, 4 h, read-out: Myc IC50 (μM).
Assay [2] deals with T1, BRD4 BD1. Particulars: read-out: BRD4 Alpha IC50.

For the molecule `CC(=O)N1CCc2c(c(N3CCCc4cc(-c5ccncc5)ccc43)nn2C2COC2)C1` [Example 8, 1-[1-(oxetan-3-yl)-3-[6-(4-pyridyl)-3,4-dihydro-2H-quinolin-1-yl]-6,7-dihydro-4H-pyrazolo[4,3-c]pyridin-5-yl]ethanone], the 50% inhibitory concentration (IC50) at BRD4 BD1 [1] was > 20000 nM.

`CC(=O)N1CCc2c(c(N3CCCc4cc(-c5c(C)cnn5C)ccc43)nn2C2COC2)C1` [Example 20, 1-[3-[6-(2,4-dimethylpyrazol-3-yl)-3,4-dihydro-2H-quinolin-1-yl]-1-(oxetan-3-yl)-6,7-dihydro-4H-pyrazolo[4,3-c]pyridin-5-yl]ethanone]: the IC50 on BRD4 BD1 [1] is > 20000 nM.

As for `CC(=O)N1CCc2c(c(N3CCCc4cc(-c5cn(C)nc5C#N)ccc43)nn2C2COC2)C1` [Example 34, 4-[1-[5-acetyl-1-(oxetan-3-yl)-6,7-dihydro-4H-pyrazolo[4,3-c]pyridin-3-yl]-3,4-dihydro-2H-quinolin-6-yl]-1-methyl-pyrazole-3-carbonitrile], the IC50 against BRD4 BD1 [1] is > 20000 nM.

In the case of `CC(=O)N1CCc2c(c(Nc3ccc(-c4cnn(C)c4)c(F)c3)nn2C(C)CO)C1` (stereo not shown) [Example 275, 3-[6-cyano-7-(1-methylpyrazol-4-yl)-2,3-dihydro-1,4-benzoxazin-4-yl]-N-methyl-1-tetrahydropyran-4-yl-6,7-dihydro-4H-pyrazolo[4,3-c]pyridine-5-carboxamide], the results for the half-maximal inhibitory concentration (IC50) in the assay with MYC and at BRD4 BD1 [2] were 0.27 µM and 4890 nM, respectively.

`CC(=O)N1CCc2c(c(Nc3ccc(-c4cn(C)nc4C(F)(F)F)cc3)nn2C(C)CO)C1` (stereo not shown) [Example 276, N-methyl-3-[7-(1-methylpyrazol-4-yl)-6-(trifluoromethyl)-2,3-dihydro-1,4-benzoxazin-4-yl]-1-tetrahydropyran-4-yl-6,7-dihydro-4H-pyrazolo[4,3-c]pyridine-5-carboxamide]: the IC50 in the assay with MYC is 0.18 µM; on BRD4 BD1 [2], 1680 nM.

In the case of `CC(=O)N1CCc2c(c(Nc3c(F)ccc(-c4cnn(C)c4)c3F)nn2C2CCOC2)C1` (stereo not shown) [Example 279, 1-[3-[2,6-difluoro-3-(1-methylpyrazol-4-yl)anilino]-1-tetrahydrofuran-3-yl-6,7-dihydro-4H-pyrazolo[4,3-c]pyridin-5-yl]ethanone], the values for the IC50 with MYC and on BRD4 BD1 [2] were 0.34 µM and 8260 nM, respectively.

`CC(=O)N1CCc2c(c(Nc3c(F)ccc(-c4cnn(C)c4)c3F)nn2[C@H]2CCOC2)C1` [Example 280, (S)-1-[3-[2,6-difluoro-3-(1-methylpyrazol-4-yl)anilino]-1-tetrahydrofuran-3-yl-6,7-dihydro-4H-pyrazolo[4,3-c]pyridin-5-yl]ethanone]: the results for the IC50 with MYC and on BRD4 BD1 [2] were 0.46 µM and 8010 nM, respectively.

For `CC(=O)N1CCc2c(c(Nc3c(F)ccc(-c4cnn(C)c4)c3F)nn2[C@@H]2CCOC2)C1` [Example 281, (R)-1-[3-[2,6-difluoro-3-(1-methylpyrazol-4-yl)anilino]-1-tetrahydrofuran-3-yl-6,7-dihydro-4H-pyrazolo[4,3-c]pyridin-5-yl]ethanone], the half-inhibitory concentration (IC50) was found to be 0.33 µM in the assay with MYC and 8260 nM at BRD4 BD1 [2].

Consider `CC(=O)N1CCc2c(c(Nc3cc(-c4cnn(C)c4)cc(C(F)(F)F)c3)nn2C2CCOC2)C1` (stereo not shown) [Example 282, 1-[3-[3-(1-methylpyrazol-4-yl)-5-(trifluoromethyl)anilino]-1-tetrahydrofuran-3-yl-6,7-dihydro-4H-pyrazolo[4,3-c]pyridin-5-yl]ethanone], for which the IC50 is 0.11 µM in the assay on MYC and 760 nM on BRD4 BD1 [2].

Consider `CC(=O)N1CCc2c(c(Nc3ccc(-c4cn(C)nn4)cc3F)nn2C2CCOC2)C1` (stereo not shown) [Example 286, 1-[3-[2-fluoro-4-(1-methyltriazol-4-yl)anilino]-1-tetrahydrofuran-3-yl-6,7-dihydro-4H-pyrazolo[4,3-c]pyridin-5-yl]ethanone], for which the figures for the IC50 with MYC and on BRD4 BD1 [2] were 1.06 µM and 8550 nM, respectively.

For the molecule `CC(=O)N1CCc2c(c(Nc3cc(-c4cnn(C)c4)cc(F)c3F)nn2C2CCOC2)C1` (stereo not shown) [Example 287, 1-[3-[2,3-difluoro-5-(1-methylpyrazol-4-yl)anilino]-1-tetrahydrofuran-3-yl-6,7-dihydro-4H-pyrazolo[4,3-c]pyridin-5-yl]ethanone], the IC50 in the assay on MYC came to 0.67 µM; at BRD4 BD1 [2] it was 4560 nM.

In the case of `CC(=O)N1CCc2c(c(Nc3ccc(F)c(-c4cnn(C)c4)c3)nn2C2CCOC2)C1` (stereo not shown) [Example 288, 1-[3-[4-fluoro-3-(1-methylpyrazol-4-yl)anilino]-1-tetrahydrofuran-3-yl-6,7-dihydro-4H-pyrazolo[4,3-c]pyridin-5-yl]ethanone], the values for the IC50 in the assay with MYC and on BRD4 BD1 [2] were 0.57 µM and 2330 nM, respectively.

`CC(=O)N1CCc2c(c(Nc3ccc(-c4cnn(C)c4)c(C(F)F)c3)nn2C2CCOC2)C1` (stereo not shown) [Example 289, 1-[3-[3-(difluoromethyl)-4-(1-methylpyrazol-4-yl)anilino]-1-tetrahydrofuran-3-yl-6,7-dihydro-4H-pyrazolo[4,3-c]pyridin-5-yl]ethanone]: the concentration for half-maximal inhibition (IC50) was 0.04 µM with MYC and 1540 nM on BRD4 BD1 [2].

As for `CC(=O)N1CCc2c(c(Nc3ccc(-c4cnn(C)n4)cc3F)nn2C2CCOC2)C1` (stereo not shown) [Example 290, 1-[3-[2-fluoro-4-(2-methyltriazol-4-yl)anilino]-1-tetrahydrofuran-3-yl-6,7-dihydro-4H-pyrazolo[4,3-c]pyridin-5-yl]ethanone], the IC50 in the assay on MYC amounted to 1.16 µM; at BRD4 BD1 [2], 8670 nM.

For `CC(=O)N1CCc2c(c(Nc3cc(F)cc(-c4cnn(C)c4)c3)nn2C2CCOC2)C1` (stereo not shown) [Example 291, 1-[3-[3-fluoro-5-(1-methylpyrazol-4-yl)anilino]-1-tetrahydrofuran-3-yl-6,7-dihydro-4H-pyrazolo[4,3-c]pyridin-5-yl]ethanone], the IC50 with MYC came out at 0.61 µM; on BRD4 BD1 [2], 1990 nM.

With `CC(=O)N1CCc2c(c(Nc3cc(-c4cnn(C)c4)ccc3F)nn2C2CCOC2)C1` (stereo not shown) [Example 292, 1-[3-[2-fluoro-5-(1-methylpyrazol-4-yl)anilino]-1-tetrahydrofuran-3-yl-6,7-dihydro-4H-pyrazolo[4,3-c]pyridin-5-yl]ethanone], the values for the IC50 in the assay with MYC and on BRD4 BD1 [2] were 0.56 µM and 3400 nM, respectively.

In the case of `CC(=O)N1CCc2c(c(Nc3ccc(-c4cnn(C)c4)c(Cl)c3)nn2C2CCOC2)C1` (stereo not shown) [Example 294, 1-[3-[3-chloro-4-(1-methylpyrazol-4-yl)anilino]-1-tetrahydrofuran-3-yl-6,7-dihydro-4H-pyrazolo[4,3-c]pyridin-5-yl]ethanone], the IC50 was 0.13 µM in the assay on MYC and 1200 nM at BRD4 BD1 [2].

As for `CC(=O)N1CCc2c(c(Nc3ccc(-c4cnn(C)c4C(F)(F)F)cc3)nn2C2CCOC2)C1` (stereo not shown) [Example 295, 1-[3-[4-[1-methyl-5-(trifluoromethyl)pyrazol-4-yl]anilino]-1-tetrahydrofuran-3-yl-6,7-dihydro-4H-pyrazolo[4,3-c]pyridin-5-yl]ethanone], the IC50 in the assay with MYC was found to be 0.16 µM; at BRD4 BD1 [2], 1980 nM.

For `CC(=O)N1CCc2c(c(Nc3cc(F)c(F)c(-c4cnn(C)c4)c3)nn2C2CCOC2)C1` (stereo not shown) [Example 296, 1-[3-[3,4-difluoro-5-(1-methylpyrazol-4-yl)anilino]-1-tetrahydrofuran-3-yl-6,7-dihydro-4H-pyrazolo[4,3-c]pyridin-5-yl]ethanone], the IC50 in the assay with MYC is 0.48 µM; on BRD4 BD1 [2], 1930 nM.

Turning to `CC(=O)N1CCc2c(c(Nc3ccc(-c4cn(C)nc4C(F)(F)F)cc3F)nn2C2COC2)C1` [Example 301, 1-[3-[2-fluoro-4-[1-methyl-3-(trifluoromethyl)pyrazol-4-yl]anilino]-1-(oxetan-3-yl)-6,7-dihydro-4H-pyrazolo[4,3-c]pyridin-5-yl]ethanone], the IC50 is 0.24 µM in the assay on MYC and 5330 nM on BRD4 BD1 [2].

`CC(=O)N1CCc2c(c(Nc3ccc(-c4cnn(C)c4)cc3F)nn2C2COC2)C1` [Example 302, 1-[3-[2-fluoro-4-(1-methylpyrazol-4-yl)anilino]-1-(oxetan-3-yl)-6,7-dihydro-4H-pyrazolo[4,3-c]pyridin-5-yl]ethanone]: the values for the IC50 in the assay on MYC and on BRD4 BD1 [2] were 0.56 µM and 8250 nM, respectively.

In the case of `CC(=O)N1CCc2c(c(Nc3ccc(-c4cn(C)nc4C(F)(F)F)cc3F)nn2CC2COC2)C1` [Example 303, 1-[3-[2-fluoro-4-[1-methyl-3-(trifluoromethyl)pyrazol-4-yl]anilino]-1-(oxetan-3-ylmethyl)-6,7-dihydro-4H-pyrazolo[4,3-c]pyridin-5-yl]ethanone], the IC50 with MYC stood at 0.25 µM; at BRD4 BD1 [2], 3670 nM.

As to `CC(=O)N1CCc2c(c(Nc3ccc(-c4cnn(C)c4)cc3F)nn2C2CCOCC2)C1` [Example 304, 1-[3-[2-fluoro-4-(1-methylpyrazol-4-yl)anilino]-1-tetrahydropyran-4-yl-6,7-dihydro-4H-pyrazolo[4,3-c]pyridin-5-yl]ethanone], the IC50 in the assay on MYC was determined as 0.19 µM; on BRD4 BD1 [2], 8870 nM.

Take `CC(=O)N1CCc2c(c(Nc3ccc(-c4cn(C)nc4C#N)cc3F)nn2C2CCOC2)C1` (stereo not shown) [Example 308, 4-[4-[(5-acetyl-1-tetrahydrofuran-3-yl-6,7-dihydro-4H-pyrazolo[4,3-c]pyridin-3-yl)amino]-3-fluoro-phenyl]-1-methyl-pyrazole-3-carbonitrile]: the IC50 in the assay on MYC stood at 0.43 µM; on BRD4 BD1 [2] it was 4000 nM.

Regarding `CC(=O)N1CCc2c(c(Nc3ccc(-c4cn(C)nc4C)cc3F)nn2C2CCOC2)C1` (stereo not shown) [Example 309, 1-[3-[4-(1,3-dimethylpyrazol-4-yl)-2-fluoro-anilino]-1-tetrahydrofuran-3-yl-6,7-dihydro-4H-pyrazolo[4,3-c]pyridin-5-yl]ethanone], the IC50 worked out at 0.4 µM in the assay with MYC and 3620 nM at BRD4 BD1 [2].

For the molecule `CC(=O)N1CCc2c(c(Nc3ccc(-c4c[nH]nc4C(F)(F)F)cc3F)nn2C2CCOC2)C1` (stereo not shown) [Example 310, 1-[3-[2-fluoro-4-[3-(trifluoromethyl)-1H-pyrazol-4-yl]anilino]-1-tetrahydrofuran-3-yl-6,7-dihydro-4H-pyrazolo[4,3-c]pyridin-5-yl]ethanone], the figures for the IC50 with MYC and on BRD4 BD1 [2] were 0.26 µM and 2910 nM, respectively.

The values above are taken from US9763922B2 (priority 2014, dated 2017).
